Read counts are not given, so values of variants with three or more changes are uncertain.
B1: LINE1-full (parent)
chain: UACGUAGGUGGUUUUCCCCUGAUAGUGCUAAGGGGGCCUGGAAGUUUGGACUGGGCAGAGCUCAACACAGCGUGGCAAAGUGGCUGUGGCUAGACUGCCUCUCUGGAUUCCUCGUCACUCAGCAGGGCAUCUCUGAGAGAAAUGCC

Variants of: B1
Test: self-cleavage, relative activity (ratio to wild type); higher = more cleavage; in vitro, sequencing; the parent is a self-cleaving ribozyme

Variant	self-cleavage
UACGUAGGUGGGUCUCCCCUGAUAGUGCUAAGGGGGCCUGGAAGUUUGGACUGGGCAGAGCUCAACACAGCGUGGCAACGUGGCUGUGGCUAGACUGCCCCUCUGGAUUCCUCGUCACUCAGCAGGGCAUCUCUGAGAGAAAUGCC	2.63
UACGUAGGUGGGUUUCCCCUGAUAGUGCCAAGGGGGCCUGGAAGUUUGGAAUGGGCAGAGCUCAACACAGCGUGGCAAAGUGGCUGUGGCUAGACUGCCUCUCUGGAUUCCUCGUCACUCAGCAGGGCAUCUCUGAGGGAAAUGCC	1.33
UACGUAGGUGGGAUUCCCCUGAUAGUGCUAAGGGGGCCUGGAAGUUUGGACUGGGCAGAGCUCAUCACAGCGUGGCAAAGUGGCUGUGGCUAGACUGCCUCUCUGGGUUCCUCGUCACUCAGCAGGGCAUCUCUGGGAGAAAUGCC	0.42
UACGUAGGUGGGUUUCCCCUGAUAGUGCUAAGGGGGCCUGGAAGUUUGGACUGGGCAGAGCUCAACACAGCGUGGCAAAGUGGCUGUAGCUAGACUGCCUCUCUGGAUUCCUCGUCACUCAGCAGGGCGUCUCUGAGAGAAAUGCC	0.04
UACGUAGGUGGGUUUCCCCUGAUAGUGCUAAGGGGGCCUGGAAGUUAGGACUGGGCAGAGCUCAACACAGCGUGGCAAAGUGGCUGUGGCUAGACUGCCUCUCUGGAUCCCUCGUCACUCAGCAGGGCAUCUCUGAGAGAAGUGCC	1.66
UACGUAGGUGGGUCUCCCCUGAUAGUGCUAAGGGGGCCAGGAAGCUUGGGCUGGGCAGAGCUCAACACAGCGUGGCAAAGUGGCUGUGGCUAGACUGCCUCUCUGGAUUCCUCGUCACUCAGCAGGGCAUCUCUGAGAGAAAUGCC	1.84
UACGUAGGUGGGUUUCCCCUGAUAGUGCUAAGGGGGCCUGGAAGUUCGGACUGGGCAGAGCUCAACACAGCGUGGCAAAGUGGCUGUGGCUAGACUGCCUCUCUGGAUUCCUCGACACUCAGCAGGGCAUCUCUGAGAGAGAUGCC	1.47
UACGUAGGUGGGUUUCCCCUGAUAGUGCUAAGGGGGCCUGGAAGUUAGGACUGGGCAGAGCUCAACACAGCGUGGCAAAGUGGCUGUGGCUAGACUGCCUCUCUGGAUUCCUCGUCACUCAGCAGGGCAUCUCCGAGAGAAAUGCC	0.71
UACGUAGGUGGGUUUCCCCUGAUAGCGCUAAGGGGGCCUGGAAGGUUGGACUGGGCAGAGCUCAACACAGCGUGGCAUAGUGACUGUGGCUAGACUGCCUCUCUGGAUUCCUCGUCACUCAGCAGGGCAUCUCUGAGAGAAAUGCC	0.54
UACGUAGGUGGGUUUCCCCUGAAAGUGCUAAGGGGGCCUGGAAGUUUGGACUGGGCAGAGCUCAGCACAGCGUGGCAAAGCGGCUGUGGCUAGACUGCCUCUCUGGAUUCCUCGUCACUCAGCAGGGCAUCUCUGAGAGAAAUGCC	0.34
UACGUAGGUGGGUUUCCCCUGAUAGUGCUAAGGGGGCCUGGAAGUAAGGACUGGGCAGAGCUCAACACAGCGUGGCAAAGUGGCUGUGGCUAGACCGCCUCUCUGGAUUCCUCGUCACUCAGCAGGGCAUCUCUGAGAGAUAUGCC	0.43
UACGUAGGUGGGUUUCCCCUGAUAGUGCUAAGGGGGCCUGGAAGUCUGGACUGGGCAGAGCUCAACACAGCGUGGCAAAGUGGCUGUAGCUAGACUGCCUCUCUGGGUUCCUCGUCACUCAGCAGGGCAUCUCUGAGAGAAAUGCC	0.07
UACGUAGGUGGGUUACCCCUGAUAGUGCUAAGGGGGCCUGGAAGUUUGGACUGGGCAGAGCUCAACACAGCGUGGCAUAGUGGCUGUGGCUAGACUGCCUCACUGGAUUCCUCGUCACUCAGCAGGGCCUCUCUGGGAGAAAUGCC	1.18
UACGUAGGUGGGUUUCCCCUGAUAGUGCUAAGGGGGCCUGGAAGUUUGGACCGGGCGGAGCUCAACACUGCGUGGCAAAGUGGCUGUGGCUAGACUGCCUCUCUGGAUUCCUCGUCACUCAGCAGGGCAUCUCUGAGAGAAAUGCC	0.22
UACGUAGGUGGGUCCCCCCUGAUAGUGCUAAGGGGGCCUGGAAGUUUGGACUGGGCAGAGCUCAACACAGCAUGGCGAAGUGGCUGUGGCUAGACUGCCUCUCUGGAUUCCUCGUCACUCAGCAGGGCAUCCCUGAGAGAAAUGCC	1.02
UACGUAGGUGGGUUUCCCCUGAUAGUGCUAAGGGGGCCUGGAAGCUUGGACCGGGCAGAGCUCAACACAGCGUGGCAAAGUGGCUGUGGCUAGACUGCCUCUCUGGAUUCCUCGUCACUCAGCAGGGCAUCUCUGAGAGAAAUGCC	1.36
UACGUAGGUGGGUUUCCCCUGAUAGUGCUAAGGGGGCCUGGAAGUUAGGACUGGGCAGAGCUCAACACAGCGUGGCAAAGUGGCUGUGGCUAGACUGCCUCUCUGGAUUCCUCGUCACUCAGCAGGGCAUCUCUGGGAGAAAUGCC	1.3
UACGUAGGUGGGUUUCCCCUGAUAGUGCUAAGGGGGCCUGGAAGUUUGGACUGGGCAGAGCCCAACACAGCGUGGCAAAGUGGCUGUGGCUAGACUGCCUCUCUGGAUUCCUCGUCACUCAGCAGGGCAUCUCUGAGGGAAAUGCC	0
UACGUAGGUGGGUUUCCCCUGAUAGUGCUAAGGCGGCCUGGAAGUUUGGACUGGGCAGAGCUCAACACAGCGUGGCAAAGUGGCUGUGGCUAGACUGCCUCUCUGGAUUCCUCGUCUCUCAGCAGGGCAUCUCUGAGAGAAAUGCC	0.5
UACGUAGGUGGGUCUCCCCUGAUAGUGCUAAGGGGGCCUGGAAGUUUGGACUGGGCAGAGCUCAACACAGCGAGGCAGAGUGGCUGUGGCUAGACUGCCUCUCUGGAUUCCUCGUCACUUAGCGGGGCAUCUCUGAGAGAAAUGCC	0.52

Variant	self-cleavage
UACGUAGGUGGGUUUCCCCUGAUAGUGCUAAGGGGGCCUGGAAGUUUAGACUGGGCAGAGCUCAACACAGCGUGGCAGAGUGGCUGUGGCUAGGCUGCCUCUCUGGGUUCCUCGUCACUCAGCAGGGCAUCUCUGAGAGAAAUGCC	1.15
UACGUAGGUGGGUCUCCCCUGAUAGUGCUAAGGGGGCCUGGAAGUUUGGACUGGGCAGAGCUCAACACAGCGUGGCAGAGUGGCUGUGGCUAGACUGCCUCUCUGGAUUCCUCGUCACUCAGCAGGGCAUCUCUGAGAGAAAUGCC	0.38
UACGUAGGUGGGUUUCCCCUGAUAGUGCUAAGGGGGCCUGGAAGUUUGGACUGGGCAGAGCUCAACACAGCGCGGCAGAGUGGCUGCGGCUAGACUGCCUCUCUGGAUUCCUCGUCACUCAGCAGGGCAUCUCUGAGAGAAAUGCC	0
UACGUAGGUGGGCUUCCCCUGAUAGUGCUAAGGGGGCCUGGAAGUUUGGACUGGGCAGAGCUCAACACAGCGUGGCAAAGUGGCUGUGGCCAGACUGCCUCUCUGGACUCCUCGUCACUCAGCAGGGCAUCUCUGAGAGAAAUGCC	0
UACGUAGGUGGGUUUCCCCUGAUAGUGCUAAGGGGGCCUGGAAGUUUGGACUGUGCAGAGCUCAACACGGCGUGGCAAAGUGGGUGCGGCUAGACUGCCUCUCUGGAUUCCUCGUCACUCAGCAGGGCAUCUCUGAGAGAAAUGCC	0
UACGUAGGUGGGUUUCCCCUGAUAGUGCUAAGGGGGCCCGGAAGUUUGGACUGGGCAGAGCUCAACACAGCGAGGCAAAGUGGCUGUGGCUAGACUGCCUCUCUGGAUUCCUCGUCACUCAGCAGGGCAUCUCUGAGAGAAAUGCC	1.01
UACGUAGGUGGGUCUCCCCUGAUAGUGCUAAGGGGGCCUAGAAGUUUGGACUGGGCAGAGCUCAACACAGCGUGGCAAAGUGGCUGUGGCUAGACUGCCUCUCUGGAUUCCUCGUCACUCAGCAGGGCAUCUCUGGGAGAAAUGCC	1.37
UACGUAGGUGGGCUUCCCCUGAUAGUGCUAAGGGGGCCUGGAAGUUUGGACCGGGCAGAGCUCAACACAGCGUGGCAAAGUGGCUGUGGCUAGACUGCCUCUCUGGAUUCCUCGACACUCAGCAGGGCAUCUCUGAGAGAGAUGCC	1.21
UACGUAGGUGGGUUCCCCCUGAUAGUGCUAAGGGGGCCUGGAAGUUUGGACUGGGCAGAGCUCAACACAGCGUGGCAAAGUGGCCGUGGCUAGACUGCCUCUCUGGAUUCCUCGUCGCUCAGCAGGGCAUCUCUGAGAGAAAUGCC	1.84
UACGUAGGUGGGUUUCCCCUGAUAGUGCUAAGGGGGCCUGGAAGUUUGGACUGGGCAGAGCCCAACACAGCGUGGCAAAGUGGCUGUGGCUAGACUGCCUCUCUGGAUUCCUCGUCGCUCAGCAGGGCAUCUCUGAGAGAAAUGCC	0.14
UACGUAGGUGGGUUUCCCCCGAUAGUGCUAAGGGGGCCUGGAAGCUUGGACUGGGCAGAGCUCAACACAGCGAGGCAAAGUGGCUGUGGCUGGACAGCCUCUCUGGAUUCCUCGUCACUCAGCAGGGCAUCUCUGAGAGAGAUGCC	0
UACGUAGGUGGGUCUCCCCUGAUAGUGCUAAGGGGGCCUGGGAGUUUGGACUGGGCAGAGCUCAACACAGCGUGGCAAAGUGGCUGAGGCUAGACUGCCUCUCUGGAUUCCUAGUCACUCAGCAGGGCAUCUCUGAGAGAAAUGCC	0.44
UACGUAGGUGGGUUUCCCCUGAUAGUGCUAAGGGGGCCUGGAAGUUUGGACUGGGCAGAGCUCAACACAGCGUGGCAAAUUGGCUAUGGCUAGACUGCCUCUCUGGAUUCCUCGUCACUCAGCAUGGCAUCUCUGAGAGAAAUGCC	0.12
UACGUAGGUGGGUUUCCCCUGAUAGUGCUAAGGGGGCCUGGAAGUUAGGACUGGGCAGAGCCCAACACAGCGUGGCAAAGUGGCUGUGGCUAGACUGCCUCUCUGGAUUCCUCGUCACUCAGCAGGGCAUCUCUGAGAGAAAAGCC	0.04
UACGUAGGUGGGUUUCCCCUGAUAGUGCUAAGGGGGCCUGGAAGUUUGGACUGAGCAGAGCUCAACACAGCGUGGCAAAGUGGCUGUGGCUUGACUGCCUCUCUGGAUUCCUCGUCACUCAGCAGGGCAUCUCUGAGAGAAAUGCC	0.4
UACGUAGGUGGGUUUCCCCUGAUAGUGCUAAGGGGGCCUGGAAGUUCGGACUGGGCAGAGCUCAACACAGCGUGGCAAAGUGGCUGUGGCUAGACUGCCUCUCUGGAUUCCUCGUCACUCAGCAGGGCAUCUCUGAGAGAAGUGCC	1.75
UACGUAGGUGGGUUUCCCCUGAUAGUGCUAAGGGGGCCUGGAAGUUUGGACUGGGCAGAGCCCAACACAGCGUGGCAAAGUGGCUGUGGCUAGACUGCCUCUCUUGAUUCCUCGUCACUCAGCAGGGCAUCUCUGAGAGAAUUGCC	0.1
UACGUAGGUGGGUCUCCCCUGAUAGUGCUAAGGGGGCCUGGAAGUUUGGACUGGGCAGAGCUCAACACAGCGUGGCAAAGUGGCUGUGGCUGGACUGCCUCUCUGGGUUCCUCGUCACUCAGCAGGGCAUCUCUGAGAGAAAUGCC	0
UACGUAGGUGGGUUUCCCCUGAUAGUGCUAAGGGGGCCUGGAAGUUAGGACUGGGCAGAGCUCAACACAGCGUGGCAAAGUGGCUGUGGCUAGACUGCCUCUUUGGAUUCCUCGUCACUCAGCUGGGCAUCUCUGAGAGAAAUGCC	2.11
